According to the BET-seq Pho4 binding data (Le et al. 2018):
The list shows a part of the results. These are noisy estimates, calculated here from bound and input reads.

What follows are sequences tested against T1, Pho4 (S. cerevisiae) (UniProt P07270) (assay: relative binding free energy (BET-seq); higher = weaker binding). Settings: reference: library average.
T1 sequence: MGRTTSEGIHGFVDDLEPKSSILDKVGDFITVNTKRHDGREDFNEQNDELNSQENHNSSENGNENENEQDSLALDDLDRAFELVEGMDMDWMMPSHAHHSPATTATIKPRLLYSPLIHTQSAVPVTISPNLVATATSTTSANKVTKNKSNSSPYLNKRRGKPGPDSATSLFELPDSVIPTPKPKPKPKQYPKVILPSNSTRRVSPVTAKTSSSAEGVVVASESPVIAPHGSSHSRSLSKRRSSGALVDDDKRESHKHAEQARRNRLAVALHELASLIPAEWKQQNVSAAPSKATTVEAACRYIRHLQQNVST
For TTCTTCACGTGAGGTG, the “relative binding free energy” value was 0.47 kcal/mol.
For TTCTACACGTGTGAGT, the “relative binding free energy” value was 0.13 kcal/mol.
In the case of CGGGGCACGTGGGCAT, the “relative binding free energy” value is reported as -0.27 kcal/mol.
With TAGTTCACGTGTTAGG the “relative binding free energy” value was 0.3 kcal/mol.
With GTCGTCACGTGTTGAA the “relative binding free energy” value was 0.18 kcal/mol.
In the case of GGTCTCACGTGATAGT, the “relative binding free energy” value is reported as 0.33 kcal/mol.
With TGTGTCACGTGCTCAG the “relative binding free energy” value was 0.03 kcal/mol.
For CTTTTCACGTGTTGGG, the “relative binding free energy” value was 0.27 kcal/mol.
In the case of TCCTTCACGTGGGGTA, the “relative binding free energy” value is reported as 0.13 kcal/mol.
In the case of GACATCACGTGTTGGT, the “relative binding free energy” value is reported as 0.14 kcal/mol.
With GTTTTCACGTGTACGT the “relative binding free energy” value was 0.3 kcal/mol.
In the case of TGTGTCACGTGTGTGC, the “relative binding free energy” value is reported as 0.13 kcal/mol.
In the case of TAGTCCACGTGAAGTG, the “relative binding free energy” value is reported as 0.37 kcal/mol.
In the case of TTGTACACGTGTGATT, the “relative binding free energy” value is reported as 0.15 kcal/mol.
With CGGGCCACGTGTGGCG the “relative binding free energy” value was 0.05 kcal/mol.
In the case of TGTATCACGTGTTGGT, the “relative binding free energy” value is reported as 0.17 kcal/mol.
With ATCATCACGTGGGATG the “relative binding free energy” value was 0.01 kcal/mol.
GTTATCACGTGATCGT was tested, and the “relative binding free energy” value was 0.32 kcal/mol.
With AGGCGCACGTGGTCTG the “relative binding free energy” value was -0.27 kcal/mol.
With GAGTTCACGTGTGCGG the “relative binding free energy” value was 0.29 kcal/mol.
In the case of TGGTGCACGTGGCTGA, the “relative binding free energy” value is reported as -0.09 kcal/mol.
In the case of TGATACACGTGTAGTA, the “relative binding free energy” value is reported as 0.03 kcal/mol.
For AGTAGCACGTGTTGCA, the “relative binding free energy” value was -0.15 kcal/mol.
With TATTACACGTGCGTGA the “relative binding free energy” value was 0 kcal/mol.
For TATTCCACGTGGGGAG, the “relative binding free energy” value was 0.06 kcal/mol.
For AGGCTCACGTGTTGGT, the “relative binding free energy” value was 0.29 kcal/mol.
TTTTCCACGTGGCAGT was tested, and the “relative binding free energy” value was 0.14 kcal/mol.
For AGTTACACGTGGACTG, the “relative binding free energy” value was 0.1 kcal/mol.
CTGGACACGTGGTGGA was tested, and the “relative binding free energy” value was -0.03 kcal/mol.
AGGCTCACGTGGTAGG was tested, and the “relative binding free energy” value was 0.22 kcal/mol.
In the case of CAGCTCACGTGGTGTG, the “relative binding free energy” value is reported as 0.09 kcal/mol.
With CGGTTCACGTGTAGGT the “relative binding free energy” value was 0.23 kcal/mol.
ATGATCACGTGGTCGT was tested, and the “relative binding free energy” value was 0.1 kcal/mol.
GTCATCACGTGGTCGG was tested, and the “relative binding free energy” value was 0.03 kcal/mol.
In the case of TGGGCCACGTGGATCG, the “relative binding free energy” value is reported as -0.1 kcal/mol.
GGGTGCACGTGTGCAA was tested, and the “relative binding free energy” value was 0.02 kcal/mol.
In the case of TAGTTCACGTGAGTCG, the “relative binding free energy” value is reported as 0.4 kcal/mol.
In the case of TTATTCACGTGACTTG, the “relative binding free energy” value is reported as 0.38 kcal/mol.
For TGGTGCACGTGCGTAT, the “relative binding free energy” value was -0.13 kcal/mol.
In the case of ATCAGCACGTGTAAGT, the “relative binding free energy” value is reported as 0.09 kcal/mol.
With GAAGGCACGTGGGGCG the “relative binding free energy” value was -0.2 kcal/mol.
TGGAACACGTGGCTGG was tested, and the “relative binding free energy” value was -0.06 kcal/mol.
In the case of ACGATCACGTGGGTTT, the “relative binding free energy” value is reported as 0.05 kcal/mol.
TGTTGCACGTGTCGCT was tested, and the “relative binding free energy” value was -0.05 kcal/mol.
TTCTTCACGTGCGGGT was tested, and the “relative binding free energy” value was 0.25 kcal/mol.
In the case of TAGAGCACGTGGAGAT, the “relative binding free energy” value is reported as 0.01 kcal/mol.
TCTTACACGTGTAAGG was tested, and the “relative binding free energy” value was 0.13 kcal/mol.
For ATGAGCACGTGTTGTT, the “relative binding free energy” value was -0.15 kcal/mol.
In the case of TGTAGCACGTGTCGGC, the “relative binding free energy” value is reported as -0.09 kcal/mol.
With ATGGGCACGTGATCTG the “relative binding free energy” value was -0.13 kcal/mol.
With AGGAGCACGTGCCGGT the “relative binding free energy” value was -0.09 kcal/mol.
For GTTTACACGTGGATAT, the “relative binding free energy” value was 0.19 kcal/mol.
With GTAGGCACGTGGGCCT the “relative binding free energy” value was -0.2 kcal/mol.
In the case of TAGTACACGTGCTATG, the “relative binding free energy” value is reported as 0.08 kcal/mol.
With ATGTCCACGTGCGTGT the “relative binding free energy” value was -0.13 kcal/mol.
With TGTATCACGTGTAAGA the “relative binding free energy” value was 0.21 kcal/mol.
With TAGATCACGTGGTGGG the “relative binding free energy” value was 0.11 kcal/mol.
With AGTCTCACGTGTGGGT the “relative binding free energy” value was 0.13 kcal/mol.
TAAGACACGTGTGAGT was tested, and the “relative binding free energy” value was 0.09 kcal/mol.
For GAGGACACGTGTTGGG, the “relative binding free energy” value was 0.16 kcal/mol.
For CGGGACACGTGAGTCG, the “relative binding free energy” value was 0.32 kcal/mol.
In the case of TGTTTCACGTGCGATC, the “relative binding free energy” value is reported as 0.36 kcal/mol.
With TATTTCACGTGAGTTT the “relative binding free energy” value was 0.45 kcal/mol.
In the case of TTGGACACGTGAGCGT, the “relative binding free energy” value is reported as 0.24 kcal/mol.
TGGTACACGTGGGCGG was tested, and the “relative binding free energy” value was -0.09 kcal/mol.
In the case of AGTTGCACGTGATGTC, the “relative binding free energy” value is reported as 0.15 kcal/mol.
For TGTTGCACGTGCTTTG, the “relative binding free energy” value was 0.04 kcal/mol.
With TGGGGCACGTGTTCAA the “relative binding free energy” value was -0.16 kcal/mol.
With GACGTCACGTGTGTAG the “relative binding free energy” value was 0.2 kcal/mol.
In the case of AGTGGCACGTGCGAAG, the “relative binding free energy” value is reported as -0.15 kcal/mol.
With ATGTGCACGTGAAATG the “relative binding free energy” value was 0.16 kcal/mol.
For AATAGCACGTGTATAT, the “relative binding free energy” value was 0.07 kcal/mol.
With ATGATCACGTGTGGGT the “relative binding free energy” value was 0.24 kcal/mol.
